# Measured values as given in PubChem BioAssay AID624296 (National Center for Advancing Translational Sciences (NCATS), 2012).
# Among all 350,000 compounds or so, about 9,900 (2.8%) were called active. The shares of active, inactive and inconclusive entries below differ from those in the screen. The call rests on the fitted dose curve; in most records, active means well fitted activation curve with a large enough effect; inconclusive means small, poorly fitted or top-dose-only effect; inactive means no such curve, though single readings can be large or run the other way. Potencies of inconclusive entries are left out as doubtful fits.
# Test: A quantitative high throughput screen for small molecules that induce DNA re-replication in MCF 10a normal breast cells. Further: nearly all actives have a fitted effect of over 50% in size. On activity, positive = re-replication: % of control where 0% means no effect.
# Settings: MCF 10A DNA re-replication, Hoechst nuclear intensity, 48 h; activity, positive = re-replication: at 46.1 µM (top of the series)
# Potency means the concentration at half of the fitted maximal effect; tags describe the fitted curve by direction and shape.
Compound,Potency,"activity, positive = re-replication"
CCOC(=O)c1c(-c2ccc3ccccc3c2)csc1NC(=O)CCCC(=O)O,"inconclusive [activator, partial curve, poor fit]",–
Cc1cc(C)cc(N(CCC#N)C(=O)COC(=O)CCc2c[nH]c3ccccc23)c1,inactive,–
CCOc1cc(N(CC)CC)ccc1/C=C(/C#N)c1nc2ccccc2[nH]1,"inconclusive [activator, partial curve, poor fit]",–
CCC(C)[C@H]1CN=C(N)N1CCc1cc(C(F)(F)F)cc(C(F)(F)F)c1 (stereo partly specified),inactive,–
CCc1cc(=O)oc2cc(OCC(=O)NCc3ccccn3)ccc12,"inconclusive [activator, partial curve, poor fit]",–
COc1ccc(N2CCOCC2)c(NC(=O)c2cc3ccccc3o2)c1,"inconclusive [activator, single point]",–
N=c1c(C(=O)NCc2ccco2)cc2c(=O)n3ccccc3nc2n1Cc1ccccc1,active: 18.4 µM,–
COCCN(CCOC)C(=O)COC(=O)c1ccc(Cl)c(S(=O)(=O)N(C)c2ccccc2)c1,"inconclusive [activator, partial curve]",–
CCC(=O)N(Cc1c(C)nn(-c2ccccc2)c1Cl)c1ccc(Cl)cc1,"inconclusive [activator, partial curve, poor fit]",–
Cc1cccc[n+]1CCCCCCCCCC[n+]1ccccc1C,inactive,–
CCCOc1cc2c(C#N)c(N3CCCC3)nc(N)c2c(N)n1,"inconclusive [activator, partial curve, poor fit]",–
COc1ccc(C(=O)NC(NC(=S)Nc2ccc(S(N)(=O)=O)cc2)C(Cl)(Cl)Cl)cc1 (stereo unspecified),"inconclusive [activator, single point]",–
COC(=O)c1ccc(CN2CCC(CO)(Cc3cccc(OC)c3)CC2)cc1,"inconclusive [activator, single point]",–
NC(=O)COc1ccc(NC(=O)c2ccccc2-c2ccccc2)cc1,"inconclusive [activator, single point]",–
O=C(Cn1nnc(-c2ccccc2F)n1)N1CCCCC1,"inconclusive [activator, single point]",–
CC1CCN(S(=O)(=O)c2ccc(C(=O)NC3CCS(=O)(=O)C3)cc2)CC1 (stereo unspecified),inactive,–
COC(=O)c1[nH]c2cccc(C)c2c1NC(=O)CN1CCN(c2ccccc2OC)CC1,"inconclusive [activator, full curve, poor fit]",–
CCOC(=O)c1c(NC(=O)CNCCOC)sc2c1CCCC2,"inconclusive [activator, single point]",–
COCCn1c(-c2ccc(Cl)cc2)cnc1SCC(=O)NCCc1ccc(OC)c(OC)c1,inactive,–
COc1ccc(OC)c(S(=O)(=O)N2CCN(C(=O)c3cc(C4CC4)nn3-c3ccccc3)CC2)c1,inactive,–
CCOC(=O)c1sc2nc(C)cc(-c3ccccc3)c2c1N,"inconclusive [activator, single point]",–
COc1cc(C(=O)NCC(c2cccs2)N2CCOCC2)c([N+](=O)[O-])cc1OC (stereo unspecified),inactive,–
Cc1noc(C)c1CSCC(=O)N(C)CC(=O)Nc1ccccc1C(F)(F)F,inactive,–
N#Cc1c(NCCCO)nc(NCc2ccccc2)c2c1CCN(Cc1ccccc1)C2,"inconclusive [activator, single point]",–

Compound,Potency,"activity, positive = re-replication"
O=C(Nc1ccc(-c2nc3ccccc3[nH]2)cc1)c1c(F)c(F)c(F)c(F)c1F,"inconclusive [activator, single point]",–
O=C(NCc1ccccc1Cl)c1ccc(S(=O)(=O)Nc2cccc(C(F)(F)F)c2)cc1,inactive,–
CC1CCN(c2nc(/C=C/c3ccccc3)nc3ccccc23)CC1,active: 20.6 µM,–
COc1ccccc1C1CC(c2ccc(NS(C)(=O)=O)cc2)=NN1S(=O)(=O)c1ccccc1 (stereo unspecified),inactive,–
CCOC(=O)C1=C(N)Oc2cc(O)ccc2C1c1ccccc1 (stereo unspecified),"inconclusive [activator, single point]",–
Cc1ccc(C)c(N=Nc2nc3ccccc3n2C)c1,"inconclusive [activator, full curve, poor fit]",–
C=CCN(c1ccccc1)S(=O)(=O)c1cccc(C(=O)NCC(c2ccc(OC)cc2)N2CCCCC2)c1 (stereo unspecified),"inconclusive [activator, single point]",–
CCN1C(=O)C(C(=O)Nc2ccc(OC)cc2)C2CC1(C)Oc1ccccc12 (stereo unspecified),"inconclusive [activator, single point]",–
CC(/C=C1\SC(=S)N(c2ccc(C(=O)O)cc2)C1=O)=C\c1ccccc1,"inconclusive [activator, partial curve]",–
O=C(Nc1cccnc1)c1cc(-c2ccc(Br)cc2)nc2ccccc12,"inconclusive [activator, single point]",–
NC(=S)N/N=C1\CCSc2ccc(Cl)cc21,inactive,–
O=C(Nc1ccc(C(=O)NCC2CCN(Cc3ccccc3F)CC2)cc1)C1=CSCCO1,"inconclusive [activator, partial curve, poor fit]",–
CN(Cc1cnn(C)c1)Cc1nc(COc2ccccc2)no1,"inconclusive [activator, single point]",–
Cn1c(SCC(=O)Nc2ccccc2)nc2ccccc2c1=O,"inconclusive [activator, single point]",–
COc1ccc(/C=N/N2C(=O)CSC2=S)cc1,inactive,–
Cc1nc(Nc2ccccc2Br)c2nnn(Cc3ccccc3)c2n1,inactive,–
COc1ccc(C(=O)c2ccc([N+](=O)[O-])cc2)cc1S(=O)(=O)N1CCC(C(=O)O)CC1,inactive,–
c1ccc(COc2ccc(CN3CCN(c4ccccn4)CC3)cc2)cc1,"inconclusive [activator, partial curve, poor fit]",–
O=S(=O)(c1ccc(Cl)nc1)N1CCCC1,"inconclusive [activator, single point]",–
Nc1nc(NCCO)nc(NC2CCCCC2)c1[N+](=O)[O-],active: 25.9 µM,–
COc1ccc(NC(=O)C2CCN(c3cc(-c4ccccc4)nc4ncnn34)CC2)cc1OC,inactive,–
CC1CN(CCc2ccccc2)c2nc3c(c(=O)[nH]c(=O)n3C)n2C1 (stereo unspecified),inactive,–
CCCC1(C(=O)OC)NC(c2ccc(OC)c(OC)c2)C2C(=O)N(c3ccc4c(c3)OCO4)C(=O)C21 (stereo unspecified),"inconclusive [activator, single point]",–
COc1ccccc1C(=O)Nc1ccc(OCC(=O)N2CC(C)OC(C)C2)cc1 (stereo unspecified),inactive,–

Compound,Potency,"activity, positive = re-replication"
C=CCn1c(O)c(N=NC(=S)Nc2ccccc2F)c2ccccc21,inactive,–
COc1ccc(C(=O)c2ccc(OC)cc2OC)cc1,active: 16.4 µM,–
C=CCn1c(=N)c(S(=O)(=O)c2ccc(C)c(C)c2)cc2c(=O)n3ccccc3nc21,active: 23.1 µM,–
O=C(Nc1cccc(-c2cccc(F)c2)c1)C1CCN(CC2CCOC2)CC1 (stereo unspecified),"inconclusive [activator, single point]",–
O=C(CN(C(=O)c1csnn1)c1ccccc1)NCCc1ccccc1,"inconclusive [activator, single point]",–
Cc1nn(-c2ccccc2)c(Cl)c1/C=N/Nc1nnc(C)c(=O)[nH]1,inactive,–
Nc1ccc(C(=O)OCc2nc3ccccc3[nH]2)cc1,"inconclusive [activator, partial curve, poor fit]",–
CN(c1ccccc1)S(=O)(=O)c1cc(C(=O)N2CCN(c3ncccn3)CC2)ccc1Cl,active: 20.6 µM,–
CCCCn1nc(C(=O)Nc2ccc3c(c2)OCCO3)c2ccccc2c1=O,"inconclusive [activator, single point]",–
O=S(=O)(NCCC1=CCCCC1)c1ccc(OC(F)(F)F)cc1,"inconclusive [activator, single point]",–
N#CC(C(=S)Nc1ccccc1)c1nc2ccccc2[nH]1 (stereo unspecified),"inconclusive [activator, single point]",–
O=C(NCC1CCCO1)C(C(=O)c1ccccc1)n1ccccc1=O (stereo unspecified),–,inactive: -191% [at 0.0737 µM]
Cc1cccc2c1-c1sc(C(=O)Nc3nccs3)cc1CO2,active: 3.66 µM,–
N#C/C(=C\Nc1ccc2cn[nH]c2c1)c1nc(-c2ccc(Cl)cc2)cs1,"inconclusive [activator, partial curve, poor fit]",–
CC1CCCCN1CCNC(=O)c1cc2c(-c3ccccc3F)nn(C)c2s1 (stereo unspecified),"inconclusive [activator, partial curve, poor fit]",–
CCOc1ccc2[nH]c(=O)c(CN(Cc3ccc(F)cc3)C(=O)c3ccco3)cc2c1,"inconclusive [activator, single point]",–
CC(C)OC(=O)c1sc2nc(-c3ccccc3)ccc2c1N,"inconclusive [activator, partial curve, poor fit]",–
Nc1cc([N+](=O)[O-])ccc1O,inactive,–
Cc1cccc(C)c1OCC(=O)N/N=C/c1ccc2c(c1)OCO2,active: 5.8 µM,–
CCN(CC)CCN(C)Cc1nc(C(c2ccccc2)c2ccccc2)no1,"inconclusive [activator, partial curve, poor fit]",–
O=c1c2ccccc2oc2nc3n(c(=O)c12)CCCS3,"inconclusive [activator, single point]",–
O=C(Nc1ccccc1C(F)(F)F)C1CCCC1,inactive,–
CCCc1cc(=O)[nH]c(SCC(=O)Nc2ccc([N+](=O)[O-])cc2C#N)n1,"inconclusive [activator, full curve]",–
